# Test results: PubChem BioAssay AID504332 (National Center for Advancing Translational Sciences (NCATS), 2011)
# In all, about 350,000 compounds went through this assay and about 31,000 (8.9%) were called active. Inconclusive results, whose numbers are uncertain, are shown with a selection of clear calls. Calls come from the whole dose curve; as a rule, active = well fitted inhibition curve with a large enough effect; inconclusive = small, poorly fitted or top-dose-only effect; inactive = no such curve, though single readings can be large or run the other way. Potencies beside an inconclusive call are fits to weak or partial responses and may not hold up.
# Biological target: Histone-lysine N-methyltransferase EHMT2 (Homo sapiens) (UniProt Q96KQ7)
# Test: qHTS Assay for Inhibitors of Histone Lysine Methyltransferase G9a; note: nearly all actives have a fitted effect of over 75% in size
# Details: G9a H3K9 monomethylation, AlphaScreen, 2 h; activity, negative = inhibition: at 59 µM (top of the series) unless noted
# Outline: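 Signal arises when biotinylated H3K9 peptide, once monomethylated, bridges streptavidin donor and antibody-captured acceptor beads. Enzyme at 20 nM was preincubated 15 min with test compounds; peptide 500 nM and SAM 20 uM then reacted for 2 h.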
# % is set by controls: 0 for no effect and ±100 for the full control effect; potency is the fitted concentration of half-maximal effect; tags give direction and shape of the fitted curve.
# Sequence of UniProt Q96KQ7 (Q96KQ7 whole entry, looked up): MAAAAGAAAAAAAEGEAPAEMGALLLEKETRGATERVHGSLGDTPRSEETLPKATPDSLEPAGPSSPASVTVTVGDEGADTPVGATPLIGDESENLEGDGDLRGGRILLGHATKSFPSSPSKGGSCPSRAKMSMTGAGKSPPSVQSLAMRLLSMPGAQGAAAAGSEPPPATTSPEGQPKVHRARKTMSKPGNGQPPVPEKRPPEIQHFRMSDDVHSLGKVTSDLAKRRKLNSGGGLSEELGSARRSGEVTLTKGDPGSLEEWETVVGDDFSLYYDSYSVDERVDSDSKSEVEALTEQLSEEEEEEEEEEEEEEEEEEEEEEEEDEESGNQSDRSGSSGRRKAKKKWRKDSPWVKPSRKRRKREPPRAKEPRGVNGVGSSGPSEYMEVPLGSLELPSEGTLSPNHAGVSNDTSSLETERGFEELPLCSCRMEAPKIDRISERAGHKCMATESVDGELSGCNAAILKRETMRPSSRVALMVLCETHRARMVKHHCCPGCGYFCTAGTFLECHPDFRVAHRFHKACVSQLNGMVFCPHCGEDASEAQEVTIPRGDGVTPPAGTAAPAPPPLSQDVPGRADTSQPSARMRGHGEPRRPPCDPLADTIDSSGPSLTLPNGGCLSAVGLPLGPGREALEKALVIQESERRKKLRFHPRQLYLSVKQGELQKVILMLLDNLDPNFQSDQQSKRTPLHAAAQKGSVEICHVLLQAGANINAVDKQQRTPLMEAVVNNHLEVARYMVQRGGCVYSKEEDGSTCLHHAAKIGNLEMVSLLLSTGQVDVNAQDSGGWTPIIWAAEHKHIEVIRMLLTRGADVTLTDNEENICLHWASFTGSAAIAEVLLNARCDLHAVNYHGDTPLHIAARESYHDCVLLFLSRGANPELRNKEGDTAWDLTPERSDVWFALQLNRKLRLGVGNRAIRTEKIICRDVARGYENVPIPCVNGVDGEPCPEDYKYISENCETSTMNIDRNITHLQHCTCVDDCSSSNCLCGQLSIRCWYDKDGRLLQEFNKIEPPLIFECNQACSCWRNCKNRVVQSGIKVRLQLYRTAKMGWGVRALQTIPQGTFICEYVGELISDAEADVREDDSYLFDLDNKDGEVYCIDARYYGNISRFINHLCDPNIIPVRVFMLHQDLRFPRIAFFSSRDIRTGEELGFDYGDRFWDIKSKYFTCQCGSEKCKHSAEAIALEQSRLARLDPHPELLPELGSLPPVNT
Structure (SMILES),Potency,"activity, negative = inhibition"
CC(C)(C)C1CCC(=NNC(=O)C(=O)NCc2cccnc2)CC1 (configuration not stated),"inconclusive: 56.2 µM [inhibitor, partial curve, poor fit]",–
O=C(NCCc1ccccc1)c1ccncc1,"inconclusive: 79.4 µM [inhibitor, partial curve, poor fit]",–
Cc1c(C2CC(=O)N(c3ccccc3)C2=O)[nH]n(-c2ccccc2)c1=O (configuration not stated),active: 35.5 µM,–
CCOc1ccc(NC(=O)CCc2c(C)nc3cc(-c4ccc(Cl)cc4)nn3c2C)cc1,active: 0.708 µM,–
Cc1ccc(CNC(=O)c2cc3c(s2)-c2c(C)cccc2OC3)cc1,–,inactive: 8.13%
COc1ccc(NS(=O)(=O)c2ccc(C)c(NC(=O)CN3C(=O)NC4(CCCC4)C3=O)c2)cc1,–,inactive: 24.2% [at 2.33 µM]
CCOC(=O)c1ccc(N=c2sc(C(=O)OC)cc(=O)n2-c2ccc(C(=O)OCC)cc2)cc1,"inconclusive: 79.4 µM [inhibitor, partial curve, poor fit]",–
CCN(CC(=O)Nc1c(F)cccc1F)C(=O)c1ccc(=O)[nH]c1,active: 20 µM,–
CCc1nnc(NC(=O)CSc2ncc(-c3ccccc3)[nH]2)s1,"inconclusive: 28.2 µM [inhibitor, single point]",–
CC(C)CC1C(C#N)=C(N)Oc2n[nH]c(-c3cccs3)c21 (configuration not stated),–,inactive: -14.9% [at 102 µM]
O=C(NC(=S)Nc1cccc2cnccc12)c1ccccc1,active: 39.8 µM,–
CS(=O)(=O)N(Cc1ccc(Cl)cc1)c1ccc(C(=O)N2CCN(c3ccccc3)CC2)cc1,active: 7.94 µM,–
COC(=O)c1ccc(C2C(C(=O)c3cc4ccccc4o3)=C(O)C(=O)N2c2cc(C)on2)cc1 (configuration not stated),active: 44.7 µM,–
Cc1ccc(C(=O)NC(N2CCCC2)C(Cl)(Cl)Cl)cc1 (configuration not stated),"inconclusive: 89.1 µM [inhibitor, single point]",–
COc1ccc2o/c(=N\O)c(C(=O)Nc3ccccc3OC)cc2c1,active: 1.58 µM,–
Cc1cccc2c(N)c3c(nc12)N(C)CC3,active: 50.1 µM,–
COc1ccc(C(=O)/C=C/c2cn(CC(O)CN3CCOCC3)c3ccccc23)cc1 (configuration not stated),active: 44.7 µM,–
Cc1ccc(-c2nn(-c3ccccc3)cc2/C=C/C(=O)O)o1,active: 28.2 µM,–
Cc1cn(C(=O)CN2C(=O)c3ccccc3C2=O)c(C)n1,–,inactive: 24%
CCCCCCCCNC(=O)/C(C#N)=C/c1ccc2c(c1)OCCO2,"inconclusive: 25.1 µM [inhibitor, single point]",–
CCOC(=O)C1=C(C)Nc2ccccc2N=C1NC(=O)Cc1ccc(OC)cc1,–,inactive: 26.2%
O=C(O)c1cc(-c2ccc(-c3c(-c4ccc5c(c4)OCO5)noc3-c3ccsc3)cc2)nc2ccccc12,active: 56.2 µM,–
Nc1ccc(OCC(O)C[n+]2ccc(CCS(=O)(=O)[O-])cc2)cc1 (configuration not stated),active: 39.8 µM,–
O=C(c1cccnc1)N1CCN(Cc2ccc3ccccc3c2)CC1,"inconclusive: 79.4 µM [inhibitor, single point]",–

Structure (SMILES),Potency,"activity, negative = inhibition"
CC1CCN(C(=O)CCNS(=O)(=O)c2ccc(Cl)cc2)CC1,–,inactive: 7.71% [at 102 µM]
CC(=O)N1CCc2cc(S(=O)(=O)CCC(=O)N3CCN(C(=O)c4ccco4)CC3)ccc21,"inconclusive: 39.8 µM [inhibitor, single point]",–
O=C(CSc1nc(=O)[nH]c2c1CCCC2)NCc1ccc(F)cc1,–,inactive: 3.12%
COCCn1c(C)cc(O)c(C(c2ccc(F)cc2)N2CCN(c3ccccc3)CC2)c1=O (configuration not stated),"inconclusive: 39.8 µM [inhibitor, single point]",–
COc1ccccc1NC(=O)c1sc2nc3c(cc2c1N)CN(Cc1ccccc1)CC3,"inconclusive: 39.8 µM [inhibitor, single point]",–
COc1cc2ccccc2cc1C(=O)Nc1ccc(CN2CCOCC2)cc1,"inconclusive: 2.82 µM [inhibitor, partial curve, poor fit]",–
O=C(Cn1cnc2ccccc21)N/N=C/c1ccccc1[N+](=O)[O-],–,inactive: -5.78%
O=C(Cc1ccccc1)Nc1c2c(nn1-c1cccc(Cl)c1)CS(=O)(=O)C2,"inconclusive: 56.2 µM [inhibitor, partial curve, poor fit]",–
COc1ccc(NC(=O)CN2CCC(C)CC2)c([N+](=O)[O-])c1,"inconclusive: 44.7 µM [inhibitor, partial curve]",–
CN(c1ccccc1)S(=O)(=O)c1cccc(NC(=O)CSc2ncc(C(F)(F)F)cc2Cl)c1,–,inactive: -16.5%
CCOC(=O)C(=CNc1ccc(OC)cc1[N+](=O)[O-])C(=O)OCC,"inconclusive: 10 µM [inhibitor, partial curve, poor fit]",–
Cc1cccc(C(=O)NC2=NC(c3ccc(Cl)cc3)CC(=O)N2)c1 (configuration not stated),–,inactive: -5.26%
COc1ccc(-n2c(C)cc(/C=C3\C(=N)N4N=C(CC(=O)N5CCOCC5)SC4=NC3=O)c2C)c(OC)c1,–,inactive: 8.15% [at 102 µM]
CCCOc1ccc(C(=O)Nc2ccc(NC(=O)c3ccccc3)c(C)c2)cc1,"inconclusive: 3.16 µM [inhibitor, partial curve, poor fit]",–
Cc1cccc(CC(=O)NCc2nc3cccnc3n2Cc2ccc(F)cc2)c1,–,inactive: 9.59%
CCNC(=S)NNC(=O)c1cc(-c2ccc(OC)cc2)nc2ccccc12,"inconclusive: 28.2 µM [inhibitor, single point]",–
O=C(CSc1nnc(-c2ccccc2)c(-c2ccccc2)n1)Nc1ccc(Br)cn1,"inconclusive: 11.2 µM [inhibitor, partial curve, poor fit]",–
COc1ccc(N2CC(NC(=O)C3CCCC3)CC2=O)cc1OC (configuration not stated),"inconclusive: 5.01 µM [inhibitor, partial curve, poor fit]",–
Cc1cc(CNC(=O)CC2C(=O)NCCN2Cc2ccc(-c3ccccc3)cc2)nn1C (configuration not stated),–,inactive: -23.2% [at 102 µM]
CCOC(=O)C(C#N)=C(c1ccccc1)c1ccccc1,–,inactive: 3.14% [at 12.7 µM]
C/C(=N\Nc1nncc2ccccc12)c1ccc(O)cc1,"inconclusive: 89.1 µM [inhibitor, single point]",–
CCC(CC)NC(=O)Cc1ccc(S(=O)(=O)N2CCOCC2)s1,"inconclusive: 39.8 µM [inhibitor, single point]",–
COc1cc(/C=N/NC(=O)CNc2n[nH]c(=O)[nH]c2=O)ccc1OCc1ccccc1,"inconclusive: 79.4 µM [inhibitor, partial curve, poor fit]",–
CCN(CC)S(=O)(=O)c1ccc(C(=O)OCCNC(=O)c2cccnc2)cc1,–,inconclusive: -82.5% [inhibitor]

Structure (SMILES),Potency,"activity, negative = inhibition"
CSc1ccc(CCNC(=O)c2cc3cc(S(=O)(=O)N4CCCCC4)ccc3n2C)cc1,–,inactive: 5.9%
COc1ccc(S(=O)(=O)N(C(C)=O)c2ccc3oc(=O)sc3c2)cc1,active: 7.08 µM,–
COc1ccc(CCNC(=O)C(C(=O)c2ccccc2)n2cc(Cl)ccc2=O)cc1OC (configuration not stated),active: 50.1 µM,–
COC(=O)c1ccccc1NC(=O)NCc1ccccc1,–,inactive: 10.1%
CS(=O)(=O)Nc1ccccc1C(=O)OCc1cc(=O)n2nc(C3CCCCC3)sc2n1,–,inactive: 0.0884%
Cc1cc(F)ccc1NC(=O)CS(=O)(=O)c1cccc2nsnc12,–,inactive: 9.31%
O=C(Nc1cccc(Cl)c1)C1CCCN(c2ncnc3c2nc2n3CCCCC2)C1 (configuration not stated),"inconclusive: 25.1 µM [inhibitor, single point]",–
CCOC(=O)C1CCC(CN(Cc2ccc(OC)cc2)S(=O)(=O)c2ccc(F)c(C(=O)Nc3c(C)cccc3C)c2)CC1 (configuration not stated),–,inactive: 0.17%
Cc1ccccc1OCc1nnc(SCC(=O)NC2CCCCC2)o1,active: 50.1 µM,–
CCOC(=O)N1CCN(C(=O)C(NS(=O)(=O)c2cccc3nsnc23)c2ccccc2)CC1 (configuration not stated),"inconclusive: 12.6 µM [inhibitor, partial curve, poor fit]",–
COCCCN1C(=O)C(=O)/C(=C(/O)c2ccc(OCC(C)C)cc2C)C1c1cccnc1 (configuration not stated),"inconclusive: 31.6 µM [inhibitor, single point]",–
COc1cc(/C=C/C(=O)OCC(=O)NCc2ccco2)cc(OC)c1OC,"inconclusive: 3.55 µM [inhibitor, single point]",–
COc1ccccc1NC(=O)CN(Cc1ccco1)C(=O)c1cc2ccccc2o1,"inconclusive: 50.1 µM [inhibitor, partial curve, poor fit]",–
COc1ccc2c(c1)sc1ncc(C(=O)NCc3cccc(C)c3)c(=O)n12,–,inactive: -5.89%
CS(=O)(=O)Nc1nnc(C2CCCC2)s1,active: 50.1 µM,–
CN(C)/C=C1\C(=O)ON=C1c1ccccc1,"inconclusive: 89.1 µM [inhibitor, partial curve, poor fit]",–
CCn1cc(C(=O)N[C@@H](CCSC)C(=O)NC(C)(C)CO)c(=O)c2cc3c(cc21)OCO3,–,inactive: 9.43% [at 102 µM]
CN(C1CC(C)(C)N(O)C(C)(C)C1)S(=O)(=O)CC12CCC(CC1=O)C2(C)C (configuration not stated),"inconclusive: 7.94 µM [inhibitor, partial curve, poor fit]",–
CCOC(=O)CSc1cc(-c2ccccc2)nc2ncnn12,–,inconclusive: -67.1% [inhibitor]
O=C(CCc1nnc(Cc2ccc3c(c2)OCO3)o1)NCCc1ccccc1Cl,–,inactive: 27.8% [at 0.501 µM]
Cc1ccc2c(c1)C(c1ccccc1)N(C(=O)CC(C)C)CC(=O)N2 (configuration not stated),–,inactive: -1.63% [at 0.501 µM]
CCCN(C(=O)CSCC(=O)Nc1ccc(OC)cc1)c1c(N)n(Cc2ccccc2)c(=O)[nH]c1=O,"inconclusive: 22.4 µM [inhibitor, full curve]",–
COc1ccc(/C(O)=C/Sc2nnc(Cc3ccccc3)o2)cc1,"inconclusive: 39.8 µM [inhibitor, single point]",–
O=C(COC(=O)c1ccc(S(=O)(=O)N2CCCC2)cc1)Nc1ccccc1,–,inactive: -3.02% [at 2.33 µM]
